# Results as given in PubChem BioAssay AID2675 (National Center for Advancing Translational Sciences (NCATS), 2010).
# Among all 280,000 compounds or so, about 100 (0.036%) were called active. This list was built around the results that the source calls inconclusive (neither active nor inactive); the mix of calls is not that of the screen. Calls come from the whole dose curve; as a rule, active = well fitted inhibition curve with a large enough effect in the signal ratio, with a control signal flat (not every such curve was filed as active); inconclusive = small, poorly fitted or top-dose-only effect, or effect the other way, or a change in a side signal; inactive = no such curve, though single readings can be large or run the other way; the % refers to the signal ratio. A potency beside an inconclusive call is a rough fit, not a confirmed value. A note “side channel” means that the fit belongs to a control or component signal, not to the main read-out.
# Biological target: Muscleblind-like protein 1 (Homo sapiens) (UniProt Q9NR56)
# Test: qHTS Assay for Inhibitors of MBNL1-poly(CUG) RNA binding
# Settings: TR-FRET MBNL1-His/biotin-(CUG)12 binding, 665/545 ratio; activity change, negative = inhibition: at 57.5 µM (top of the series)
# Outline: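 TR-FRET readout: Ex 340 nm, 665/545 nm emission ratio, normalized to buffer-only (basal) and MBNL1-(CUG)12 controls. Complex of MBNL1-His with Biotin-(CUG)12, compounds 92 nM–58 uM, incubated 60 min at room temperature.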
# % is set by controls: 0 for no effect and ±100 for the full control effect; potency is the fitted concentration of half-maximal effect; tags give direction and shape of the fitted curve or compound fluorescence and quenching.
# UniProt Q9NR56, sequence (Q9NR56 whole entry, looked up): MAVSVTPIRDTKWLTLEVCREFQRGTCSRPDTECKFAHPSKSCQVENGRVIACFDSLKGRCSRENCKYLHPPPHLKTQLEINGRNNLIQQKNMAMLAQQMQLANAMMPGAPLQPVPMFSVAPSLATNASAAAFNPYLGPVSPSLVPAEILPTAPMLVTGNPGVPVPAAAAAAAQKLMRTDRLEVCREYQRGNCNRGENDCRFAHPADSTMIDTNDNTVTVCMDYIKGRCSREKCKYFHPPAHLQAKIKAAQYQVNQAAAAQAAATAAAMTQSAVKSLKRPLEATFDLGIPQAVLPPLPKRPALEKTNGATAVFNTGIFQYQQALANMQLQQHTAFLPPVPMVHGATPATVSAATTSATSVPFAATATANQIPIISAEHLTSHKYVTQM
Compound,Potency,"activity change, negative = inhibition"
CCCCNC(=S)NC1CCCC1,"inconclusive: 0.398 µM [fluorescent, side channel, partial curve]",
COc1ccc(NC(=O)CCNC(=O)C2CCN(S(=O)(=O)c3ccc(OC)cc3)CC2)cc1,inactive,
CC(=O)c1cccc(NC(=O)C2CCN(C(=O)c3ccc([N+](=O)[O-])cc3)CC2)c1,"inconclusive: 25.1 µM [quencher, side channel, partial curve]",
CCOc1ccc(CN2CCN(c3ncnc4scc(-c5ccccc5)c34)CC2)cc1,inactive,
O=C1c2ccc(Oc3cccc([N+](=O)[O-])c3)cc2C(=O)N1c1ccccn1,"inconclusive: 15.8 µM [quencher, side channel, partial curve]",
O=S(=O)(O)c1cc(OS(=O)(=O)c2ccccc2)cc2ccccc12,"inconclusive: 14.1 µM [quencher, side channel, partial curve]",
COc1ccc2[nH]c(C(=O)N/N=C/c3cc(OC)c(OC)c(OC)c3)cc2c1,"inconclusive: 8.91 µM [quencher, side channel, partial curve]",
Cc1ccc(NC(=O)C(C)c2ccc(-c3ccccc3)c(F)c2)c(C)c1 (stereo not given),"inconclusive: 35.5 µM [fluorescent, side channel, single point]",
CC(=O)c1cc2c(cc1NC(=O)CCn1cccc1)OCO2,"inconclusive: 12.6 µM [quencher, side channel, partial curve]",
CCN(CC)C(=O)CCS(=O)(=O)c1cccc2nonc12,"inconclusive: 28.2 µM [quencher, side channel, partial curve]",
C/C(=N\Nc1ncc(Br)cn1)c1cccc([N+](=O)[O-])c1,"inconclusive: 15.8 µM [quencher, side channel, partial curve]",
COc1cc(C=C2C(=O)c3ccccc3C2=O)cc(OC)c1OC,inactive,
CC(C)(C)C1CCc2onc(C(=O)Nc3ccc4c(c3)OCO4)c2C1 (stereo not given),inactive,
N#C/C(=C(/O)COC(=O)c1ccc2c(c1)OCCO2)c1nc2ccccc2[nH]1,inactive,
CNc1ccc(Br)cc(C(=O)/C=C/c2ccc(OC)cc2)c1=O,"inconclusive: 22.4 µM [quencher, side channel, single point]",
CCOc1cc(/C=C/C(=O)OCC(=O)NC2CCS(=O)(=O)C2)ccc1OCc1ccccc1 (stereo not given),"inconclusive: 11.2 µM [quencher, side channel, partial curve]",
COc1ccc(N2CCN(C(=O)C3CC(O)CN3S(=O)(=O)c3ccc([N+](=O)[O-])cc3)CC2)cc1 (stereo not given),"inconclusive: 8.91 µM [quencher, full curve]",
Cc1ccc(Nc2nc(N)c([N+](=O)[O-])c(N3CCOCC3)n2)cc1C,,inconclusive: 6.5% [phenotype inactive]
O=c1cc2c(nn1Cc1cccc(Cl)c1)-c1ccccc1CC2,inactive,
Cc1ccccc1NC1=C/C(=N\S(=O)(=O)c2ccc(C(=O)O)cc2)c2ccccc2C1=O,"inconclusive: 11.2 µM [quencher, side channel, partial curve]",

Compound,Potency,"activity change, negative = inhibition"
O=C(O)c1cccc2c1C(=O)c1ccccc1C2=O,"inconclusive: 3.98 µM [quencher, side channel, partial curve]",
CCN1C(=O)NC2=C(C(=O)c3ccccc32)C1c1ccccc1F (stereo not given),"inconclusive: 7.08 µM [quencher, side channel, partial curve]",
FC(F)(F)c1ccccc1NC(=S)NN=C1CCCCCC1,inactive,
Cc1nnc(SCc2c(Cl)cccc2[N+](=O)[O-])s1,"inconclusive: 20 µM [quencher, partial curve]",
Cc1ccccc1NC(=O)CCC(=O)N/N=C/c1cc([N+](=O)[O-])ccc1O,"inconclusive: 17.8 µM [quencher, side channel, single point]",
C/C=C/C=N/Nc1nc(-c2ccc([N+](=O)[O-])cc2)cs1,"inconclusive: 10 µM [quencher, side channel, partial curve]",
NC(N)=Nc1nc(-c2ccccc2)c2cc(Cl)ccc2n1,"inconclusive: 14.1 µM [quencher, side channel, partial curve]",
CCOC(=O)c1sc2nc(C)nc(SCC(=O)NC(C)CCc3ccccc3)c2c1C (stereo not given),"inconclusive: 39.8 µM [fluorescent, single point]",
CC/C(O)=C(\C#N)c1nnc2n1CCCCC2,inactive,
O=C1C2C3C=CC(C3)C2C(=O)N1c1ccccc1 (stereo not given),"inconclusive: 17.8 µM [quencher, side channel, partial curve]",
Nc1ncnc(Oc2cccc3cccnc23)c1[N+](=O)[O-],"inconclusive: 15.8 µM [quencher, side channel, partial curve]",
CO/C([O-])=N/c1c[n+](-c2ccc(Cl)cc2)no1,"inconclusive: 15.8 µM [quencher, side channel, partial curve]",
O=C1c2oc3ccc(F)cc3c(=O)c2C(c2ccncc2)N1CCN1CCOCC1 (stereo not given),"inconclusive: 28.2 µM [quencher, side channel, single point]",
C=CCn1c(O)c(N=NC(=S)Nc2ccccc2C)c2cc(S(=O)(=O)N3CCOCC3)ccc21,"inconclusive: 5.01 µM [quencher, side channel, partial curve]",
COc1ccc(CN2C(=O)c3cccnc3C2=O)cc1S(=O)(=O)N1CCOc2ccc(Cl)cc21,"inconclusive: 15.8 µM [quencher, side channel, partial curve]",
Cc1c(NC(=O)c2ccc3c4c(cccc24)CC3)c(=O)n(-c2ccccc2)n1C,"inconclusive: 28.2 µM [quencher, side channel, partial curve]",
Cc1cc(/C=C2\SC(=S)NC2=O)cc(C)c1O,"inconclusive: 10 µM [quencher, side channel, partial curve]",
Cc1ccc(NC(=O)Cn2cnc3cc([N+](=O)[O-])ccc3c2=O)cc1,"inconclusive: 7.94 µM [quencher, side channel, full curve]",
CNC(=O)/C(C#N)=C/c1c(N2CCCCCC2)nc2c(C)cccn2c1=O,"inconclusive: 15.8 µM [quencher, side channel, partial curve]",
CC(C)CNC(=O)COC(=O)/C=C/c1ccccc1[N+](=O)[O-],"inconclusive: 15.8 µM [quencher, side channel, partial curve]",

Compound,Potency,"activity change, negative = inhibition"
Cn1c(CBr)c(C(=O)c2ccc([N+](=O)[O-])cc2)c(=O)n(C)c1=O,"inconclusive: 14.1 µM [quencher, side channel, partial curve]",
COc1cnc(SCCC(F)=C(F)F)[nH]c1=O,inactive,
O=C(C[n+]1ccc(C(=O)c2ccccc2)cc1)Nc1ccc(C(F)(F)F)cc1,"inconclusive: 11.2 µM [quencher, partial curve]",
Cc1cc(C(=O)Nc2ccc(S(=O)(=O)N3CCOCC3)cc2)ccc1[N+](=O)[O-],"inconclusive: 17.8 µM [quencher, side channel, partial curve]",
CCCc1cc(N2CCN(C(=O)c3ccco3)CC2)n2c(nc3ccccc32)c1C#N,"inconclusive: 28.2 µM [quencher, single point]",
C=C(C)CN(CC)c1ccc(N2C(=O)CCCC2=O)cc1[N+](=O)[O-],"inconclusive: 17.8 µM [quencher, partial curve]",
S=C(NCCc1ccccc1)NC1CC2CCC(C1)N2Cc1ccccc1 (stereo not given),inactive,
CCC(=O)Oc1ccc(-c2cnc3ccccc3n2)cc1,"inconclusive: 12.6 µM [quencher, side channel, partial curve]",
COc1ccc2ccccc2c1/C=N/Nc1ccc(Cl)c(C(=O)O)c1,"inconclusive: 17.8 µM [quencher, side channel, partial curve]",
COc1ccc(/C=C/c2nc(S(=O)(=O)c3ccccc3)c(NCCCN(C)C)o2)cc1OC,"inconclusive: 15.8 µM [quencher, partial curve]",
O=C(CSc1nnc(-c2ccco2)o1)c1ccc([N+](=O)[O-])cc1,"inconclusive: 5.62 µM [quencher, side channel, partial curve]",
Cc1ccc(CNC(=O)CCS(=O)(=O)c2cccc3nonc23)cc1,"inconclusive: 10 µM [quencher, side channel, partial curve]",
Cc1cccc(NC(=O)C2CCN(S(=O)(=O)c3cccc4nonc34)CC2)c1,"inconclusive: 4.47 µM [quencher, side channel, partial curve]",
O=C(Cc1ccccc1)N/N=C/c1cccc([N+](=O)[O-])c1,"inconclusive: 8.91 µM [quencher, side channel, partial curve]",
CCn1c(N)c(C(=O)NC2CCCCC2)sc1=S,"inconclusive: 39.8 µM [quencher, single point]",
CCC(C)(C)n1nnnc1C(c1cc2cc(C)cc(C)c2[nH]c1=O)N1CCCC1 (stereo not given),inactive,
O=C(/C=C/c1c(Cl)cccc1Cl)N1CCOCC1,inactive,
Cc1ccc(-c2ccc(=O)n(CC(=O)NCCCN3CCCCC3)n2)cc1,"inconclusive: 28.2 µM [quencher, side channel, single point]",
COc1cccc(CNC(=O)CCSCc2ccccc2F)c1,inactive,
O=C(NCCCl)Nc1ccc(Cl)c([N+](=O)[O-])c1,"inconclusive: 20 µM [quencher, side channel, partial curve]",
